Measured values from publication PMC7819943, “Rice protein-binding microarrays: a tool to detect cis-acting elements near promoter regions in rice”.
This is one part of the list.

Molecular target: T1, OsWOX13 (Oryza sativa, UniProt Q5QMM3 1-267)
T1 sequence: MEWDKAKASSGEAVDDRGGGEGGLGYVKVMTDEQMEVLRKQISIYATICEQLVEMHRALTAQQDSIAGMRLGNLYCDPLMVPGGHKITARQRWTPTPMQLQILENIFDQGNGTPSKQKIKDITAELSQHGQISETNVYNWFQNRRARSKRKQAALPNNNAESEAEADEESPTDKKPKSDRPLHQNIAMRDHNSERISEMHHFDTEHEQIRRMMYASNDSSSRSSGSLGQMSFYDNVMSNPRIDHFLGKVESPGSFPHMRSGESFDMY
Assay: protein-binding microarray (RPBM); PBS, 2% BSA, 51.3 ng/ul salmon testes DNA, 50 uM zinc acetate, 200 nM TF, 25 C, 1 h; high values mean tight binding
Conditions: protein: recombinant; tags: N-terminal polyhistidine and DsRed monomer fusion (pET32a); label: CyDye5-dUTP incorporated in the synthesized complementary strand; 3' TTTTT single-stranded linker to array surface; dsDNA, one strand shown
Outline: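 Ni–NTA purification followed expression in E. coli BL21-CodonPlus of transcription factors fused N-terminally to a polyhistidine tag and DsRed. At 200 nM in PBS with 2% BSA, salmon testes DNA and 50 µM zinc acetate, the protein was incubated for 1 h at 25 °C with a custom Agilent array that had been primer-extended with Cy5-dUTP and blocked with 2% BSA. After washing, the array was read on an Axon 4000B scanner. The binding signal is per-feature fluorescence intensity in arbitrary units.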

Sequence | binding signal
CATTGATCAATTTGAAGATGGATTGATATGGAAATCTTAACGGAGTCACCTAGTGCAG | 32000 fluorescence intensity (a.u.)
GGGCTTAAATTAGATTGGGCCGGCCGTGCTGAGAAGCCTGCGGAGTCACCTAGTGCAG | 21200 fluorescence intensity (a.u.)
AACCACTCAAATCTGAAATCAATCACCGAACCCAAGTGACCGGAGTCACCTAGTGCAG | 16300 fluorescence intensity (a.u.)
TTTTATAATTCGATGACAAATTGAGAGACCTTGGGTGTACCGGAGTCACCTAGTGCAG | 13200 fluorescence intensity (a.u.)
TCAAATGCTAATTAACAGACAACTAATCTTCCTCTCTCATCGGAGTCACCTAGTGCAG | 24200 fluorescence intensity (a.u.)
TGATTGATTGAGTTTTAATTATTATAAACTTGAAAATTAGCGGAGTCACCTAGTGCAG | 47800 fluorescence intensity (a.u.)
TGTCTCAATAAATTGATCGTTGGCAAAATCGGTTAGTCGTCGGAGTCACCTAGTGCAG | 16900 fluorescence intensity (a.u.)
AAAAGCAATTGATTACCTACATGGAAGAGGACATAGGAGGCGGAGTCACCTAGTGCAG | 30700 fluorescence intensity (a.u.)
ACTAACAGAAATATTTGACAGATGGCGAAAGGACCTGTAACGGAGTCACCTAGTGCAG | 17000 fluorescence intensity (a.u.)
CAACGCCTGTAATTGCTCCTCCTGGCATGCAAGCCTTGTCCGGAGTCACCTAGTGCAG | 5050 fluorescence intensity (a.u.)
GGACTGAGTTAATTTGAATCCAGCTTTTCCCACCATTTTCCGGAGTCACCTAGTGCAG | 3750 fluorescence intensity (a.u.)
CTTGTGGATGATTTGGGATATTTAGGGAGCAAATCGATTGCGGAGTCACCTAGTGCAG | 3270 fluorescence intensity (a.u.)
CGAAATTGCTCTTTCTAAGGGATATGCTTCCCTCTCACAACGGAGTCACCTAGTGCAG | 6540 fluorescence intensity (a.u.)
GTTTAAATTAAAACTTGAAAATATAAATCATGAATAAGTTCGGAGTCACCTAGTGCAG | 3300 fluorescence intensity (a.u.)
AATATAAAGAATTACTTCAATCATGCAAGAAGAGGCAATTCGGAGTCACCTAGTGCAG | 4560 fluorescence intensity (a.u.)
TTTGATAAAATCATAGATGTAGATTTTAATGTGATCTGAGCGGAGTCACCTAGTGCAG | 6270 fluorescence intensity (a.u.)
CTTAATTAATCACGTACTAATGTATCGCTCCGTTTTCCGTCGGAGTCACCTAGTGCAG | 40400 fluorescence intensity (a.u.)
TTTCACTCATCAATTAAATTAGGCGGTTGATACTGAGTACCGGAGTCACCTAGTGCAG | 17600 fluorescence intensity (a.u.)
GCTAACCATAATGATGACAATTGCCTGACAGAGAAAGACACGGAGTCACCTAGTGCAG | 6440 fluorescence intensity (a.u.)
ATGATTAACTATTACTGTACCAAGTTGGGCCAGGCTTGCACGGAGTCACCTAGTGCAG | 38000 fluorescence intensity (a.u.)
TGCAAATGATGACAGTCACACGCATTAACGCCTTGGACGGCGGAGTCACCTAGTGCAG | 12000 fluorescence intensity (a.u.)

Sequence | binding signal
GCTCAATCCAATTTAACGTGCTACAAAGCTACTTCCTCCGCGGAGTCACCTAGTGCAG | 3240 fluorescence intensity (a.u.)
GCTCCAATTAATCAACTTCCATCGTATCCATTGATCGATGCGGAGTCACCTAGTGCAG | 26500 fluorescence intensity (a.u.)
CTGCGGTGATTTCTAAACCATAGTAACCACAACTAAACAACGGAGTCACCTAGTGCAG | 3200 fluorescence intensity (a.u.)
ATTAATTAACCCGTAAGCTATGCTGCGGCTGCACGGGCACCGGAGTCACCTAGTGCAG | 15600 fluorescence intensity (a.u.)
CCACAATCAATTTAGATGGCTCATGAGATGCACTTAATATCGGAGTCACCTAGTGCAG | 15500 fluorescence intensity (a.u.)
TGATAGATGGAAAATAAATTGGTAAAATTAGTAGATGGGACGGAGTCACCTAGTGCAG | 39700 fluorescence intensity (a.u.)
CCAGTGATAGAGCCATCAGTCTATCTGGTGATCTAATCTACGGAGTCACCTAGTGCAG | 4390 fluorescence intensity (a.u.)
CAATTCCTTAATCTAAACTCCTAATTATCTTTTGCCTACACGGAGTCACCTAGTGCAG | 3860 fluorescence intensity (a.u.)
ATTCATTAACATATTGATGGCTTCATGCGGGTGGCCTTGGCGGAGTCACCTAGTGCAG | 4550 fluorescence intensity (a.u.)
CCATATTCATTGGTAATCAGGAGATGGGTCAACATGGCATCGGAGTCACCTAGTGCAG | 3310 fluorescence intensity (a.u.)
GATTTTGATAGGAATGTAAGTATAAAACAGAGGATTGTAACGGAGTCACCTAGTGCAG | 3360 fluorescence intensity (a.u.)
ATTATTGAAAGTTATGTGACATTTATATAGTAAAAGATATCGGAGTCACCTAGTGCAG | 3270 fluorescence intensity (a.u.)
TAACATTCCTTCAATTAACTAACTCAAACAGATGAACAAACGGAGTCACCTAGTGCAG | 11400 fluorescence intensity (a.u.)
TAGCTCATTCAAATTGACATTTGCACGATGATGAGTGTGCCGGAGTCACCTAGTGCAG | 11800 fluorescence intensity (a.u.)
GGGGTGATTAGTCCTTATATTTATACACCGTATGTAGGGACGGAGTCACCTAGTGCAG | 31400 fluorescence intensity (a.u.)
TTTTGATAATTGGAGGAGTCGATATACCCGGTTTTGTGGTCGGAGTCACCTAGTGCAG | 34900 fluorescence intensity (a.u.)
AGTTTAGTTAATTTTCAGTCCATTAGAGTCTTGTTTTAGTCGGAGTCACCTAGTGCAG | 4940 fluorescence intensity (a.u.)
TCAACTGGTTAATCACAGCAATTAACCAAGCTGGACATCACGGAGTCACCTAGTGCAG | 16900 fluorescence intensity (a.u.)
AAAATCAAATTGTTGCTAATCTACCATTAATTCCCTAGTACGGAGTCACCTAGTGCAG | 7710 fluorescence intensity (a.u.)
TCTAATTAAGATGAGATTCTATCTCAATTTGTGTTAGCACCGGAGTCACCTAGTGCAG | 23300 fluorescence intensity (a.u.)
TTAAATTTATAGTTTTGTGATATATCCCTAGTTTTGTTAACGGAGTCACCTAGTGCAG | 8610 fluorescence intensity (a.u.)
